Hit rate of the full screen: of about 270,000 compounds, about 5,800 (2.1%) were called active. Inconclusive results, whose numbers are uncertain, are shown with a selection of clear calls. Calls come from the whole dose curve; as a rule, active = well fitted inhibition curve with a large enough effect; inconclusive = small, poorly fitted or top-dose-only effect; inactive = flat fitted curve, though single readings scatter. Potencies of inconclusive entries are doubtful fits and often do not repeat.
What follows are compounds tested against Microtubule-associated protein tau (Homo sapiens) (UniProt P10636) (assay: qHTS for Inhibitors of Tau Fibril Formation, Thioflavin T Binding). Conditions: recombinant tau K18 P301L (four-repeat tau fragment), heparin-induced fibrillization, ThT fluorescence; series mostly up to 57.4 µM.
How it was run: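 Heparin-induced (20 uM) aggregation of recombinant human K18 P301L tau, 15 uM unlabeled with 0.24 uM labeled, pH 7 acetate buffer, 6 hr at 37 C with compound. Fibrils quantified by 30 uM ThT fluorescence after 1 hr ambient incubation.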
Note: nearly all actives have a fitted effect of over 55% in size.
Potency is the fitted concentration of half-maximal effect; tags give direction and shape of the fitted curve.

Sequence of UniProt P10636 (P10636 whole entry, looked up, the tested form may be a part): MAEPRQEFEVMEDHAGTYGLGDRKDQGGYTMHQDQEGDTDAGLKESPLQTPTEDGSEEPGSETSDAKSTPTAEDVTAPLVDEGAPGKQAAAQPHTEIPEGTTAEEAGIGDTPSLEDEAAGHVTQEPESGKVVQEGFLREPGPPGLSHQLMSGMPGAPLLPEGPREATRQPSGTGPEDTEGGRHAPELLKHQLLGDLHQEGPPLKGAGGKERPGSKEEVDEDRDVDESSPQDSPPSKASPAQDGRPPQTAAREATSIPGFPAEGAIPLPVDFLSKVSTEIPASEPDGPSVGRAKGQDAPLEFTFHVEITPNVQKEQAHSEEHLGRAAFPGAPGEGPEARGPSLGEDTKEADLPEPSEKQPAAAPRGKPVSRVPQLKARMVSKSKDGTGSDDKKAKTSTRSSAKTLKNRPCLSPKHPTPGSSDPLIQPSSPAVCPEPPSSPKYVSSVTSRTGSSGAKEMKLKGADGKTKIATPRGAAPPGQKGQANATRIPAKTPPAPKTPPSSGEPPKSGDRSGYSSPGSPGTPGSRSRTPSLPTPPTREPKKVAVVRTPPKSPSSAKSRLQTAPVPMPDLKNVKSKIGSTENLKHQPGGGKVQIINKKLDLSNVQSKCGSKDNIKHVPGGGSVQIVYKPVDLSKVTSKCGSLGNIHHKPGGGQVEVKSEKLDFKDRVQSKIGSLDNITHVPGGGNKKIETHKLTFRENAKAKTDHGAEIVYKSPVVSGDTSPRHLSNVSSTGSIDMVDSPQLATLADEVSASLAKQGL

SMILES | Potency
Cc1cc(C(=O)Nc2ccc(N3CCOCC3)cc2)c2ccccc2n1 | inconclusive: 31.6 µM [inhibitor, partial curve]
CCOC(=O)c1ccc(NC(=O)c2c(NCc3cccs3)sc3c2CCCCC3)cc1 | active: 22.4 µM
CCN1CCN(CCOc2ccc(Br)cc2C)CC1 | inactive
COC(=O)c1[nH]c2cccc(C)c2c1NC(=O)CN1CCCc2ccccc21 | inconclusive: 35.5 µM [inhibitor, single point]
COC(=O)c1c(-c2cc(OC)c(OC)c(OC)c2)c2ccnc(OCc3ncccn3)c2c(=O)n1Cc1ccnc(C)c1 | inactive
CC1CCCCN1CCNC(=O)c1cc2c(=O)n(C)c3ccccc3c2n1C (stereo unspecified) | inconclusive: 17.8 µM [inhibitor, single point]
Nc1sc2c(c1C(=O)c1ccccc1)CCCC2 | inconclusive: 17.8 µM [inhibitor, partial curve]
O=C(c1ccc(S(=O)(=O)N2CCCCC2)cc1)N1CCN(CCN2C(=O)c3cccc4cccc(c34)C2=O)CC1 | inconclusive: 25.1 µM [inhibitor, single point]
O=C(Nc1ccccc1Cl)c1ccc(-n2cccn2)c([N+](=O)[O-])c1 | inconclusive: 0.398 µM [activator, partial curve, poor fit]
CCOC(=O)c1c(C)nc2cc(C)cc(C)n12 | inactive
Cc1ccc(C(=O)c2cc3ccccc3o2)cc1 | inconclusive: 17.8 µM [inhibitor, partial curve]
COc1ccc2cc3cc(C(=O)N4CCN(c5ccc(C(C)=O)cc5)CC4)sc3nc2c1Cl | inconclusive: 7.08 µM [inhibitor, full curve]
COc1cc(SC)ccc1C(=O)NCCOc1ccc(Cl)cc1 | inconclusive: 28.2 µM [inhibitor, partial curve]
N/C(=N\OC(=O)c1ccc(OCC(F)(F)F)nc1)c1ccc(Cl)cc1 | inconclusive: 8.91 µM [inhibitor, partial curve]
COc1ccc(C(=O)Nc2cc(-c3cccc(C)c3)nn2-c2ccccc2)cc1 | inactive
O=C(Cc1ccc(F)cc1)NCC1CCCO1 (stereo unspecified) | inactive
COc1cccc(C(=O)N(Cc2sccc2C)C2CCS(=O)(=O)C2)c1 (stereo unspecified) | inactive
Oc1ccc(-c2csc(Nc3ncccn3)n2)cc1O | active: 11.2 µM
COc1ccc(C2=NO[C@@H]3C(=O)N(c4ccc(C)cc4C)C(=O)[C@H]23)cc1OC | inactive
CCOC(=O)c1c(C)oc2nc(C)nc(N3CCN(c4ccc(C(C)=O)cc4)CC3)c12 | inconclusive: 5.01 µM [inhibitor, partial curve]
CCOc1cc(CNCCSc2nnnn2C)cc(Br)c1OCc1ccc(F)cc1 | inconclusive: 17.8 µM [inhibitor, partial curve, poor fit]
COc1ccc(C)cc1Nc1nc(-c2c(C)[nH]c3ccccc23)cs1 | inconclusive: 11.2 µM [inhibitor, partial curve]
CCSc1nc2ccccc2n1C(=O)/C=C\c1ccc(OC)c(OC)c1 | active: 10 µM

SMILES | Potency
O=C(COc1ccc(Cl)cc1)Nc1ncc([N+](=O)[O-])s1 | inconclusive: 8.91 µM [inhibitor, partial curve]
Cc1ccc(NC(=O)CN2C(=O)N/C(=C/c3ccc(N4CCOCC4)cc3)C2=O)cc1 | inactive
COc1ccc(N2C(=O)CC(Sc3ccccc3C(=O)O)C2=O)c([N+](=O)[O-])c1 (stereo unspecified) | active: 14.1 µM
O=c1c2c(-c3cccs3)csc2[nH]c(=S)n1-c1ccccc1 | inactive
CCOC(=O)c1c(N)n(-c2ccc(Cl)c(Cl)c2)c2nc3ccccc3nc12 | inactive
CCN1CCN(c2cc(C)c3cc(NC(=O)c4cccc(C(F)(F)F)c4)ccc3n2)CC1 | inconclusive: 2.51 µM [inhibitor, full curve]
CC1=C(C(=O)Nc2ccc([N+](=O)[O-])cc2)C(c2cccc(C(F)(F)F)c2)NC(=S)N1c1ccccc1 (stereo unspecified) | inactive
Cc1ccnc(SCC(=O)N2CCN(C(c3ccccc3)c3ccccc3)CC2)n1 | inconclusive: 31.6 µM [inhibitor, partial curve]
Cc1nc(SCc2ccc(OCCC(C)C)cc2)n[nH]1 | inactive
O=C(Cn1c(=O)oc2ccccc21)N1CCOCC1 | inactive
CCCc1c(C)nn(C(=O)/C(C#N)=N/Nc2ccccc2[N+](=O)[O-])c1C | inconclusive: 17.8 µM [inhibitor, partial curve]
Cc1cc(S(=O)(=O)Nc2ccc3c(c2)COC3=O)ccc1F | inactive
Cc1oc2ncn(CC(C)C)c(=O)c2c1C(=O)N1CCN(c2ccc(F)cc2)CC1 | inactive
O=C(CN1C(=O)/C(=C/c2ccccc2)SC1=S)Nc1ncc(Cc2ccccc2)s1 | inconclusive: 5.62 µM [inhibitor, partial curve, poor fit]
Cc1nn(Cc2c(Cl)cccc2Cl)c(C)c1C(=O)NCc1ccc(C)n1C | inconclusive: 22.4 µM [inhibitor, partial curve, poor fit]
Cc1ccc(C)c(N2CCN(C(=O)CN3CCSc4ccc(S(=O)(=O)N(C)C)cc43)CC2)c1 | inactive
C=CCc1cccc(OC)c1OCCOCCn1ccnc1 | inactive
CCOC(=O)c1cc([N+](=O)[O-])sc1NC(=O)c1ccc(S(=O)(=O)N2CC3(C)CC2CC(C)(C)C3)cc1 (stereo unspecified) | inactive
Cc1ccc(S(=O)(=O)Cc2ccc(C(=O)N3CCN(c4ccc(F)cc4)CC3)o2)cc1 | inconclusive: 15.8 µM [inhibitor, partial curve]
C/C(=N\NC(=O)c1ccc(N(C)C)cc1)c1ccc(C)cc1C | inconclusive: 14.1 µM [inhibitor, partial curve]
COc1cc(OC)c(NC(=O)CCCn2nc(C)c3sc4ccccc4c3c2=O)cc1Cl | inconclusive: 35.5 µM [activator, single point]
CCOc1ccc(NC(=O)N2CC=C(c3c[nH]c4ccccc34)CC2)cc1 | active: 4.47 µM
CC1=C(c2ccc(C)c(C)c2)S(=O)(=O)N=C1N1CCC(C(=O)NCCc2ccc(Cl)cc2)CC1 | inconclusive: 3.16 µM [inhibitor, full curve, poor fit]
